Assay results from the antibiotic and cytotoxicity screens of Wong et al. (2023).
The other results are listed elsewhere or left out.

Key:
HSkMC = human skeletal muscle cells; assay: cytotoxicity call (relative viability < 0.9); conditions: 10 µM
HepG2 = assay: cytotoxicity call (relative viability < 0.9); conditions: 10 µM
S. aureus RN4220 = assay: growth inhibition call (relative growth <= 0.2); conditions: 50 µM

C[C@@H]1CN([C@H](C)CO)C(=O)Cc2cc(NC(=O)CCC(F)(F)F)ccc2O[C@H]1CN(C)S(=O)(=O)c1cn(C)cn1
inactive: cytotoxicity call (HSkMC) | cytotoxicity call (HepG2) | growth inhibition call (S. aureus RN4220)

O=C(CCCCCCC(=O)Nc1ccc([C@@H]2O[C@H](CSc3ccncc3)C[C@H](c3ccccc3)O2)cc1)NO
inactive: cytotoxicity call (HSkMC) | cytotoxicity call (HepG2) | growth inhibition call (S. aureus RN4220)

C[C@H]1CN=C(NS(=O)(=O)c2ccccc2)N1
inactive: cytotoxicity call (HSkMC) | cytotoxicity call (HepG2) | growth inhibition call (S. aureus RN4220)

Cc1cc(C(=O)Nc2cccc3c2O[C@@H](CN(C)Cc2ccc4c(c2)OCO4)[C@@H](C)CN([C@H](C)CO)C3=O)n(C)n1
inactive: cytotoxicity call (HSkMC) | cytotoxicity call (HepG2) | growth inhibition call (S. aureus RN4220)

Cc1noc(C)c1S(=O)(=O)Nc1ccc2c(c1)C(=O)N([C@H](C)CO)C[C@H](C)[C@H](CN(C)C(=O)Nc1ccc(F)cc1)OCCCC[C@@H](C)O2
inactive: cytotoxicity call (HSkMC) | cytotoxicity call (HepG2) | growth inhibition call (S. aureus RN4220)

Cc1noc(C)c1S(=O)(=O)N(C)C[C@@H]1OCCCC[C@@H](C)Oc2ccc(NC(=O)CCCCCC(=O)Nc3ccccc3N)cc2C(=O)N([C@H](C)CO)C[C@@H]1C
inactive: cytotoxicity call (HSkMC) | cytotoxicity call (HepG2) | growth inhibition call (S. aureus RN4220)

COC(=O)[C@H](Cc1ccc(-n2cc(-c3ccc(C(=O)NO)s3)nn2)cc1)N1CC2=C[C@H]([C@@H](O)Cc3ccccc3)n3c(=O)n(C)c(=O)n3[C@@H]2[C@@H](C2CC2)O1
inactive: cytotoxicity call (HSkMC) | cytotoxicity call (HepG2) | growth inhibition call (S. aureus RN4220)

C[C@H]1CN([C@@H](C)CO)C(=O)c2cc(NC(=O)Cc3cn(C)c4ccccc34)ccc2O[C@H]1CN(C)Cc1ccc(Cl)c(Cl)c1
inactive: cytotoxicity call (HSkMC) | cytotoxicity call (HepG2) | growth inhibition call (S. aureus RN4220)

CC(=O)N(C)C[C@H]1Oc2ncc(C#C[C@H](C)O)cc2C(=O)N([C@H](C)CO)C[C@H]1C
inactive: cytotoxicity call (HSkMC) | cytotoxicity call (HepG2) | growth inhibition call (S. aureus RN4220)
